From the supplement of paper PMC10369915
The other results are listed elsewhere or left out. No stated cut-off is given here; in the data, active = 3.2 or more and inactive = the rest. Most of these values are background signal.

B1: RET_Y809_R813Q_YF (peptide)
chain: VEFAKYGSLQG
B2: RGS13_Y146_L150F (peptide)
chain: LKSEMYQKLFK
B3: RET_Y826 (peptide)
chain: KVGPGYLGSGG
B4: RET_Y806_YF (peptide)
chain: LLIVEYAKFGS
B5: RET_Y806 (peptide)
chain: LLIVEYAKYGS
B6: RET_Y905_K907T (peptide)
chain: YEEDSYVTRSQ
B7: RHO_Y301 (peptide)
chain: KSAAIYNPVIY
B8: RET_Y900_R897Q_YF (peptide)
chain: LSQDVYEEDSF
B9: RHBDD1_Y264_YF (peptide)
chain: RNFDTYTAGLS
B10: RHO_Y301_K296E_YF (peptide)
chain: ESAAIYNPVIF
B11: RET_Y809_V804L_YF (peptide)
chain: LEFAKYGSLRG
B12: RHO_Y136_R135G (peptide)
chain: LAIEGYVVVCK
B13: RFX2_Y82 (peptide)
chain: GGDAVYTNGAI
B14: RET_Y981_R982C (peptide)
chain: CSEEMYCLMLQ
B15: RET_Y981 (peptide)
chain: CSEEMYRLMLQ
B16: RGS13_Y146 (peptide)
chain: LKSEMYQKLLK
B17: RHO_Y301_S297R (peptide)
chain: KRAAIYNPVIY
B18: RHBDD1_Y264_D262G_YF (peptide)
chain: RNFGTYTAGLS
B19: RET_Y905 (peptide)
chain: YEEDSYVKRSQ

Biological target: SHP2 C-SH2 domain E139D
Test: enrichment score (SH2-bound / input frequency) (ratio); bacterial display of known human phosphotyrosine sites (pTyr-Var adds point mutants) read by sequencing; higher = stronger binding; tyrosines were phosphorylated by kinases first
Settings: peptide library: pTyr-Var
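Further: displayed peptides selected on beads carrying the immobilized SH2 domain, with library peptides lacking any tyrosine serving as negative controls.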

Enrichment score, active:
B5 3.24

Enrichment score, inactive:
B1 0.879
B2 1.24
B3 0.803
B4 2.91
B6 0.567
B7 1.03
B8 0.519
B9 0.517
B10 0.715
B11 0.71
B12 1.05
B13 0.649
B14 2.23
B15 1.07
B16 0.584
B17 0.803
B18 0.888
B19 0.735

Biological target: SHP2 C-SH2 domain wild-type
Test: as above
Settings: peptide library: pTyr-Var

Enrichment score, active:
B4 3.63

Enrichment score, inactive:
B1 0.838
B2 0.747
B3 0.806
B5 2.4
B6 0.491
B7 0.987
B8 0.601
B9 0.578
B10 0.8
B11 0.749
B12 1.36
B13 0.669
B14 2.29
B15 1.42
B16 0.785
B17 0.744
B18 0.74
B19 0.428

Biological target: SHP2 N-SH2 domain L43F
Test: as above
Settings: peptide library: pTyr-Var

Enrichment score, inactive:
B1 0.67
B2 0.755
B3 0.786
B4 3.05
B5 3.05
B6 0.5
B7 0.857
B8 0.494
B9 0.942
B10 0.702
B11 0.733
B12 0.952
B13 0.626
B14 2.08
B15 1.07
B16 0.567
B17 0.903
B18 0.82
B19 0.554

Biological target: SHP2 N-SH2 domain T42A
Test: as above
Settings: peptide library: pTyr-Var

Enrichment score, inactive:
B1 0.801
B2 0.788
B3 0.744
B4 2.85
B5 2.41
B6 0.513
B7 0.791
B8 0.454
B9 0.533
B10 0.663
B11 0.567
B12 1.13
B13 0.615
B14 2.21
B15 0.878
B16 0.477
B17 0.748
B18 0.897
B19 0.606

Biological target: SHP2 N-SH2 domain T52S
Test: as above
Settings: peptide library: pTyr-Var

Enrichment score, inactive:
B1 0.835
B2 0.633
B3 0.824
B4 2.76
B5 2.74
B6 0.426
B7 0.915
B8 0.593
B9 0.675
B10 0.963
B11 0.677
B12 0.807
B13 0.626
B14 2.24
B15 1.16
B16 0.35
B17 0.689
B18 0.765
B19 0.673

Biological target: SHP2 N-SH2 domain wild-type
Test: as above
Settings: peptide library: pTyr-Var

Enrichment score, inactive:
B1 0.853
B2 0.688
B3 0.615
B4 2.91
B5 2
B6 0.574
B7 1.01
B8 0.686
B9 0.74
B10 0.881
B11 0.686
B12 1.49
B13 0.746
B14 2.24
B15 1.37
B16 0.57
B17 0.698
B18 1.02
B19 0.785
